In the antibiotic and cytotoxicity screens of Wong et al. (2023):
The other results are listed elsewhere or left out.

test system: HSkMC (human skeletal muscle cells); experiment: cytotoxicity call (relative viability < 0.9); settings: 10 µM

Compound	cytotoxicity call
C[C@H]1CN([C@@H](C)CO)C(=O)c2cc(NC(=O)Cn3cnnn3)ccc2O[C@@H]1CN(C)C(=O)Nc1ccc(C(F)(F)F)cc1	inactive
C[C@H](CO)N1C[C@H](C)[C@@H](CN(C)Cc2ccccc2)Oc2c(NC(=O)c3ccc(-c4nccs4)cc3)cccc2C1=O	inactive
NC(=O)[C@@H]1CCCN1C(=O)[C@H](Cc1c[nH]cn1)NC(=O)[C@@H]1CCC(=O)N1	inactive
CC(C)NC(=O)N(C)C[C@H]1OCCCC[C@@H](C)Oc2ccc(NC(=O)Nc3ccc(F)cc3)cc2C(=O)N([C@@H](C)CO)C[C@H]1C	inactive
NC(=O)CCN1C(=O)[C@@H]2[C@@H](C1=O)[C@@H]1C=C[C@@H]2C1	inactive
O=C(C[C@@H]1CC[C@H]2[C@@H](COC[C@@H](O)CN2C(=O)Nc2cccc(Cl)c2)O1)NCc1ccccc1F	inactive
C[C@H](CO)N1C[C@H](C)[C@H](CN(C)Cc2ccc(Cl)c(Cl)c2)OCCCC[C@H](C)Oc2ccc(NC(=O)Nc3ccc(F)cc3)cc2C1=O	inactive
Cc1noc(C)c1NC(=O)N(C)C[C@@H]1Oc2ccc(NS(=O)(=O)c3cccs3)cc2CC(=O)N([C@@H](C)CO)C[C@@H]1C	inactive
C[C@H]1CN([C@@H](C)CO)C(=O)c2cc(NC(=O)Cn3cnnn3)ccc2O[C@@H]1CN(C)C(=O)NC1CCCCC1	inactive
C[C@@H]1CCCCO[C@H](CN(C)C(=O)Nc2cccc3ccccc23)[C@H](C)CN([C@@H](C)CO)C(=O)c2cc(NS(=O)(=O)c3ccc(F)cc3)ccc2O1	inactive
C[C@@H]1CN([C@H](C)CO)C(=O)c2cc(NC(=O)Nc3ccc4c(c3)OCO4)ccc2O[C@H]1CN(C)Cc1ccc(Oc2ccccc2)cc1	inactive
O=C(O)CCCCC(=O)O	inactive
Cc1ccc(S(=O)(=O)N(C)C[C@H]2Oc3c(NC(=O)Nc4ccc(C(F)(F)F)cc4)cccc3C(=O)N([C@H](C)CO)C[C@H]2C)cc1	active
COc1ccc(S(=O)(=O)N(C)C[C@H]2Oc3ncc(C#CC4(O)CCCC4)cc3C(=O)N([C@@H](C)CO)C[C@H]2C)cc1	inactive
CC1COc2c(C3(N)CC3)c(F)cc3c(=O)c(C(=O)O)cn1c23.CS(=O)(=O)O (centres undefined)	inactive
CC(=O)N[C@H]1CC[C@@H](CCNC(=O)C2CC2)O[C@H]1CO	inactive
C[C@@H]1CN([C@H](C)CO)C(=O)c2cc(C3=CCCCC3)cnc2O[C@H]1CN(C)C(=O)CN1CCOCC1	inactive
Cc1noc(C)c1S(=O)(=O)Nc1ccc2c(c1)C(=O)N([C@H](C)CO)C[C@@H](C)[C@@H](CN(C)S(=O)(=O)c1c(C)noc1C)O2	inactive
C[C@H]1CN([C@@H](C)CO)C(=O)Cc2cc(NS(C)(=O)=O)ccc2O[C@@H]1CN(C)C(=O)NC1CCCCC1	inactive
C[C@H](CO)N1C[C@H](C)[C@H](CN(C)C(=O)Cc2ccncc2)Oc2cc(C#CC3(O)CCCC3)ccc2S1(=O)=O	inactive
CN1CCN(C(=O)C[C@@H]2CC[C@H](NC(=O)Cc3ccccn3)[C@H](CO)O2)CC1	inactive
O=C(Nc1ccc(C(=O)Nc2ccc(C(=O)Nc3ccc(S(=O)(=O)O)c4cc(S(=O)(=O)O)cc(S(=O)(=O)O)c34)cc2)cc1)Nc1ccc(C(=O)Nc2ccc(C(=O)Nc3ccc(S(=O)(=O)O)c4cc(S(=O)(=O)O)cc(S(=O)(=O)O)c34)cc2)cc1	inactive
C[C@H]1CN([C@@H](C)CO)C(=O)Cc2cc(NC(=O)CCN3CCOCC3)ccc2O[C@H]1CN(C)S(=O)(=O)c1cn(C)cn1	inactive
C[C@@H]1CN([C@@H](C)CO)C(=O)c2cc(NS(=O)(=O)c3cn(C)cn3)ccc2O[C@@H](C)CCCCO[C@H]1CN(C)CC1CC1	inactive
O=C1N(CCS(=O)(=O)c2ccccc2)Cc2ccccc2C[C@@]12COC(c1ccc(OCCCO)cc1)=N2	active
COc1ccccc1CNC(=O)C[C@H]1C[C@@H]2c3cc(NC(=O)Nc4ccc(C(F)(F)F)cc4)ccc3O[C@@H]2[C@H](CO)O1	inactive
C[C@@H]1CN([C@@H](C)CO)C(=O)c2cc(NC(=O)Nc3ccccc3)ccc2O[C@H]1CN(C)C(=O)Nc1cccc2ccccc12	inactive
C[C@@H]1CN([C@@H](C)CO)C(=O)c2cc(NC(=O)CCC(F)(F)F)ccc2O[C@@H](C)CCCCO[C@@H]1CN(C)S(=O)(=O)c1ccccc1	inactive
COCC(=O)Nc1ccc2c(c1)OC[C@H](C)N(Cc1ccccc1OC)C[C@H](C)[C@H](OC)CN(C)C2=O	inactive
